Results: PubChem BioAssay AID624202 (National Center for Advancing Translational Sciences (NCATS), 2012)
In all, about 380,000 compounds went through this assay and about 4,000 (1.1%) were called active. This list was built around the results that the source calls inconclusive (neither active nor inactive); the mix of calls is not that of the screen. Calls come from the whole dose curve; as a rule, active = well fitted activation curve with a large enough effect; inconclusive = small, poorly fitted or top-dose-only effect; inactive = no such curve, though single readings can be large or run the other way. A potency beside an inconclusive call is a rough fit, not a confirmed value.

Test: qHTS Assay to Identify Small Molecule Activators of BRCA1 Expression; note: nearly all actives have a fitted effect of over 80% in size
Conditions: MCF7-BRCA1-FFLuc reporter, luminescence, 48 h; activation: at 46.1 µM (top of the series), scaled: vehicle 0%, 10 µM genistein 100% unless noted
Outline: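 MCF7-BRCA1-FFLuc cells, 2000/well in phenol-red-free MEM, attached 2 h then treated 48 h at 37 C. Luciferase luminescence read 15 min after reagent; normalized to genistein maximum activation (10microM) and DMSO, concentration-response fitted.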
Potency is the fitted concentration of half-maximal effect; tags give direction and shape of the fitted curve.

Compound	Potency
Cc1cc(C)c(C#N)c(SCC(=O)Nc2ccccc2)n1	inconclusive: 7.08 µM [activator, partial curve, poor fit]
Cn1c(=O)n(-c2ccc(F)c(Cl)c2)c(=O)c2sc3ccccc3c21	inactive
Cc1[nH]c2ccccc2c1C(=O)C(=O)Nc1ccc2c(c1)OCCO2	active: 10 µM
Cc1ccc(NC(=O)c2cccc(NC(=O)/C=C/c3ccco3)c2)cc1C	inactive
COc1ccc(C(=O)COC(=O)c2ccccc2O)c(OC)c1	inconclusive: 31.6 µM [activator, single point]
COC(=O)c1ccc(COc2ccc3c(c2)CCC3)o1	inconclusive: 1.58 µM [activator, partial curve, poor fit]
Cc1cccc(OCC(=O)O/N=C(\N)c2ccccn2)c1	inconclusive: 14.1 µM [activator, partial curve, poor fit]
COc1cccc(/C=N/Nc2c(Cl)cncc2Cl)c1O	inconclusive: 8.91 µM [activator, partial curve, poor fit]
COc1ccc(NC(=O)CSc2nc(N)c3cc4c(nc3n2)CC(C)(C)OC4)cc1	inconclusive: 22.4 µM [activator, single point]
CC(C)C(=O)N(c1ccc2oc(=O)sc2c1)S(=O)(=O)c1cccs1	inactive
CC1CC1C(=O)OCC(=O)NC(=O)NC12CC3CC(CC(C3)C1)C2 (centres undefined)	inconclusive: 17.8 µM [activator, single point]
Cc1oc2ncn(CC(C)C)c(=O)c2c1C(=O)N1CCN(c2cccc(C(F)(F)F)c2)CC1	inactive
CCCCOC(=O)Nc1ccc(N(C)C)cc1	inconclusive: 1.26 µM [activator, full curve, poor fit]
Cc1ccccc1/C(N)=N/OC(=O)/C=C/c1ccccc1	inconclusive: 12.6 µM [activator, partial curve, poor fit]
CCSc1nnc(NC(=O)c2csc(C)c2)s1	active: 5.01 µM
Cc1ccc(C)c(N2CCN(c3cnn(-c4nc5ccccc5s4)c(=O)c3Cl)CC2)c1	inconclusive: 2 µM [activator, partial curve, poor fit]
Cc1cccc(-c2noc(CN(C(=O)COc3ccc(Br)cc3C)C(C)C)n2)c1	inactive
COc1ccc2c(/C=N/Nc3ccc(C(=O)O)cc3)c[nH]c2c1	inconclusive: 0.631 µM [activator, full curve, poor fit]
CC(=O)N1N=C(c2ccc(C)cc2)CC1c1ccco1 (centres undefined)	active: 12.6 µM
O=C1C2C3C=CC(O3)C2C(=O)N1N=Cc1ccc2c(c1)OCO2 (centres undefined)	inconclusive: 11.2 µM [activator, partial curve, poor fit]
Cn1ccc(C(=O)Nc2ccc(Br)cc2Br)n1	active: 2.24 µM
CC(C)Oc1cccc(C(=O)NC(=S)Nc2cccc(C(F)(F)F)c2)c1	inactive
CCC(C)NC(=O)c1ccc2c(Cl)c3c(nc2c1)CCC3 (centres undefined)	inconclusive: 1.78 µM [activator, full curve, poor fit]
CC(NC(=O)c1cccc(OC2CCN(C(=O)C3CC3)CC2)c1)c1ccc(F)cc1 (centres undefined)	inactive
COC(=O)c1ccc(/C=N/n2c(C)nc3ccccc3c2=O)cc1	inconclusive: 12.6 µM [activator, partial curve, poor fit]

Compound	Potency
C/C(=C\C(=O)Nc1nccs1)c1ccccc1	active: 8.91 µM
COc1ccccc1/C=N/Nc1nc(C)c(C(C)=O)s1	inconclusive: 3.16 µM [activator, partial curve, poor fit]
NC(=O)c1cccnc1Nc1cccc([N+](=O)[O-])c1	active: 1.78 µM
Cc1ccc(NC(=O)Nc2ccc3c(c2)OCO3)nc1	inconclusive: 7.08 µM [activator, full curve, poor fit]
Cc1ccc(OCC(=O)N2CCCCC2)c(Br)c1	active: 11.2 µM
O=C(NC1CCCc2c1cnn2-c1ccc(F)cc1F)c1csnn1 (centres undefined)	inactive
CCC(=O)Nc1ccc2c(c1)ncn2-c1ccccc1	inconclusive: 12.6 µM [activator, partial curve, poor fit]
O=S(=O)(c1ccc2c(c1)OCCO2)N1CCC(n2nnc3cc(F)ccc32)CC1	inactive
COc1ccc2nc(NC(=O)CCn3cccc3)sc2c1	inactive
O=C(COC(=O)c1cccc(O)c1)c1ccccc1	inconclusive: 20 µM [activator, single point]
Cc1ccc(NC(=O)[C@H](NC(=O)[C@@H]2Cc3ccccc3CN2)c2ccccc2)cc1C	inactive
O=C(Nc1ccc(Br)c2cccnc12)c1cccc2ccccc12	inactive
Cn1cccc1-c1nc2ccc(NC(=O)c3ccccc3)cc2[nH]1	inconclusive: 15.8 µM [activator, partial curve, poor fit]
COc1ccc(-c2cn3nc(SCC(=O)NC4CCCCC4)ccc3n2)cc1	active: 1.26 µM
COC(=O)c1sc(NC(=O)c2ccc(C)o2)nc1C	inconclusive: 2.51 µM [activator, full curve, poor fit]
Cc1nn(C(C)C(=O)NC2CCC(C)CC2)c(=O)c2nn(-c3ccccc3)c(C)c12 (centres undefined)	inactive
Cc1ccccc1-c1nc(C#N)c(N2CCC(C)CC2)o1	inconclusive: 11.2 µM [activator, partial curve, poor fit]
Cc1cc2ncn(CCOc3ccccc3)c2cc1C	inconclusive: 12.6 µM [activator, partial curve, poor fit]
COc1ccc(-n2ccnc(NCc3ccc(Cl)cc3)c2=O)cc1	inactive
CCc1ccc(C(=O)CN2CCSC2=N)cc1	inconclusive: 0.631 µM [activator, full curve, poor fit]
CNC(=O)c1ccsc1NC(=O)c1ccc(S(=O)(=O)N2CCCc3ccccc32)cc1	inactive
CCOc1ccc(S(=O)(=O)N2Cc3ccccc3CC2C(=O)Nc2ccc(NC(C)=O)cc2)cc1 (centres undefined)	inactive
COc1cccc2cc(C(=O)Nc3ccc(CC(=O)O)cc3)c(=O)oc12	inactive
O=C(Nc1ccccc1Cl)ON=C1c2ccccc2-c2ccccc21	inconclusive: 28.2 µM [activator, single point]
